Assay results from PubChem BioAssay AID1645887 (National Center for Advancing Translational Sciences (NCATS), 2021).
Several values for one entry are separate records, joined by “and”; a condition that tells them apart may be missing. Equal entries are not always repeated. Among all 16,000 compounds or so, about 40 (0.2%) were called active. Another 1% or so got no clear call; they are omitted. The call rests on the fitted dose curve; in most records, active means well fitted activation curve with a large enough effect; inconclusive means small, poorly fitted or top-dose-only effect, or another doubt; inactive means no such curve, though single readings can be large or run the other way. This is one part of the list. Some compounds were tested as several samples or in several runs, with calls that do not always agree.

Biological target: Rap guanine nucleotide exchange factor 4 (Homo sapiens) (UniProt Q8WZA2)
Assay: Validation qHTS for agonist of cAMP-regulated guanine nucleotide exchange factor 4 (EPAC2);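 on activation: exchange makes BODIPY-GDP fluorescence drop when released from Rap1B; series mostly up to about 150 µM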
Settings: EPAC2 Rap1B BODIPY-GDP exchange, fluorescence; activation: hits give high values
How it was run: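 Fluorescent exchange assay: 100 nM EPAC2 with 250 nM RAP1B-BODIPY-GDP and 50 uM GDP; compound added, 5 min at room temperature, then read (ex 480/em 540 nm) every 5 min for 30 min. Normalized to 6.5 mM cAMP agonist control.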
On the % scale 0 is the no-effect control and ±100 the full control effect; potency means the concentration at half of the fitted maximal effect.

Sequence of UniProt Q8WZA2 (Q8WZA2 whole entry, looked up): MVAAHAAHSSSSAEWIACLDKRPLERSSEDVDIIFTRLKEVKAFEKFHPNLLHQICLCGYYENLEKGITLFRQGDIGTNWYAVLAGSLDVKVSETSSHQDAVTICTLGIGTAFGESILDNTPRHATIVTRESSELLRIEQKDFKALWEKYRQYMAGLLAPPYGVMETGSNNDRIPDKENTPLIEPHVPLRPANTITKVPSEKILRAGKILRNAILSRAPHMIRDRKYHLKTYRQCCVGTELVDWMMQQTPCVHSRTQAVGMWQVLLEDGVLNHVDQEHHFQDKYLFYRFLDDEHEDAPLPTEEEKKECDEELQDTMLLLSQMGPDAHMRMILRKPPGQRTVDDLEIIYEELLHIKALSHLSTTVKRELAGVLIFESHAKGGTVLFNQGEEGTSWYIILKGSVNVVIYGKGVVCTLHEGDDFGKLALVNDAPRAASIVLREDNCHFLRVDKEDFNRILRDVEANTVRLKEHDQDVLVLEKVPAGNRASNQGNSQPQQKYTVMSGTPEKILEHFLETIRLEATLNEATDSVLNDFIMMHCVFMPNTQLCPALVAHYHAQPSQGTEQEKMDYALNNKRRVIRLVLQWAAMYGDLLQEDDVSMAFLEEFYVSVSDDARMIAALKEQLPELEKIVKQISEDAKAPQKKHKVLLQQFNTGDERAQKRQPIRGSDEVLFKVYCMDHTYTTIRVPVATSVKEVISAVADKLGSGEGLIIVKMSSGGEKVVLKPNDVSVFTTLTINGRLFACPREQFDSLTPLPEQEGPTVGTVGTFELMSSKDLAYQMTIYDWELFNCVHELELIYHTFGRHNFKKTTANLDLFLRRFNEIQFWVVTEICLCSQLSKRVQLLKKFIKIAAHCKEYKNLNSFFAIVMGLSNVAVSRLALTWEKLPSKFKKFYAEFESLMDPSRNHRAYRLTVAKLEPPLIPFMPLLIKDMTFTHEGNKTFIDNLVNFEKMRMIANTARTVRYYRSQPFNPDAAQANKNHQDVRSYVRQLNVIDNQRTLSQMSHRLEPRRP

| SMILES | activation | Potency |
| --- | --- | --- |
| Cn1cccc1C(=O)N1CCC2(CC1)CN(C(=O)Nc1cccc(C#N)c1)C2 | inactive: -10.5% |  |
| Cn1cccc1C(=O)N1CCC[C@@]2(CCN(c3cccc(-c4ccccc4)c3)C2)C1 | inactive: -7.4% |  |
| CC(=O)Oc1ccc2c(c1)CCC1C2CC[C@]2(C)C(OC(C)=O)CCC12 (stereo partly drawn) | inactive: -1.9% |  |
| COc1cccc(Cn2c(=O)c(-c3cccc(C#N)c3)nc3cnc(N4CCOCC4)nc32)c1 | inactive: 1.25% |  |
| CC(=O)OCC[N+](C)(C)C | inactive: -2.31% and inactive: 1.21% and inactive: -1.13% |  |
| COc1cc2c(c(OC)c1OC)-c1c(cc3c(c1OC)OCO3)C[C@@H](C)[C@](C)(O)C2 | inactive: 1.81% and inactive: 4.23% |  |
| CNc1nc(-c2ccc3c(c2)OCO3)nc2ccccc12 | inactive: -3.46% |  |
| CC1(C)CCC2=C(O1)c1ccccc1C(=O)C2=O | inactive: 17.8% |  |
| N[C@@H](Cc1cc(-c2ccc(Cl)cc2Cl)cc(CP(=O)(O)O)c1O)C(=O)O | inactive: -28.5% |  |
| Cc1ccc(C(=O)NCCc2nnc3n2CCN(Cc2cc(C)cc(C)c2)CC3)cc1 | inactive: -1.34% |  |
| CON=C1C[C@]2(C[C@@H]3C[C@@H](C/C=C(\C)C[C@@H](C)/C=C/C=C4\CO[C@@H]5[C@H](O)C(C)=C[C@@H](C(=O)O3)[C@]45O)O2)O[C@H](/C(C)=C/C(C)C)[C@H]1C | inactive: -57.2% and inactive: -64.5% |  |
| O=[N+]([O-])c1ccc(/C=N\O)o1 | inactive: -4.7% |  |
| O=C(CO)[C@@H](O)[C@H](O)[C@@H](O)C(=O)O | inactive: 11.8% |  |
| OCCN1C[C@H](O)[C@@H](O)[C@H](O)[C@H]1CO | inactive: 6.71% |  |
| CCC(=O)NC1CCc2cccc(OC)c2C1 (stereo not drawn) | inactive: 5.86% |  |
| Cc1ccsc1CN1CCc2nnc(CCNC(=O)c3ccc(F)cc3)n2CC1 | inactive: -4.66% |  |
| COc1cc(-c2c(OC)cccc2OC)cc2c1OCCN(C(=O)CCC(=O)c1ccc(F)cc1)C2 | inactive: -17.2% |  |
| C/C=C/c1ccc2oc(-c3ccc(O)cc3)c(C)c2c1 | inactive: -7.49% |  |
| OC(c1ccc2c(c1)CN(Cc1cccn1-c1ncccn1)CCO2)C1CCCCC1 (stereo not drawn) | inactive: -21.5% |  |
| O=C1CC[C@H](C(=O)N2CCCCC2)N1 | inactive: -14.9% |  |
| O=C(O)/C=C/c1cnc[nH]1 | inactive: -7.03% |  |

| SMILES | activation | Potency |
| --- | --- | --- |
| N[C@@H](CSCCCO)C(=O)O | inactive: 8.38% |  |
| COc1ccc(CN2CCCC(n3cc(C(=O)NC4CCCC4)nn3)C2)c(O)c1 (stereo not drawn) | inactive: -13.2% |  |
| CC(C)CN1CCC(=O)N(CCOc2ccccc2)CC1 | inactive: -21.8% |  |
| COc1cc(OC)c(C(=O)CCCCN2CCC3(CC2)NC(=O)NC3=O)cc1NS(=O)(=O)c1ccc(C(F)(F)F)cc1 | inactive: -16.7% and inactive: -13.1% |  |
| CC1(C)SC2C(NC(=O)Cc3ccccc3)C(=O)N2C1C(=O)O (stereo not drawn) | inactive: 0.593% |  |
| c1ccc2nc3ccccc3cc2c1 | inactive: -8.02% |  |
| Cc1cc2ccccc2cn1 | inactive: -19.9% |  |
| CC[C@@]12CCCN3CCc4c(n(c5ccccc45)[C@](O)(C(=O)OC)C1)[C@H]32 | inactive: -4.79% |  |
| O=C1CCC[C@@H]2C[C@@]3(C[C@@H]4CCN1[C@H]24)Nc1cc(Cl)ccc1NC3=NC1CCCCC1 | inactive: 4.65% |  |
| N#C[C@H]1C[C@H]2C[C@@H]2N1C(=O)[C@@H](N)C12CC3CC(CC(O)(C3)C1)C2 | inactive: -14.2% |  |
| O=C1[C@H](Cc2ccccc2)NCCCC[C@@H](c2ccco2)N1Cc1ccccc1 | inactive: -35.7% |  |
| O=C1OC(OC(=O)c2cccnc2Nc2cccc(C(F)(F)F)c2)c2ccccc21 (stereo not drawn) | inactive: -1.51% |  |
| COC(=O)C1=C(C)NC(C)=C(C(=O)OC(C)C)C1c1cccc2nonc12 (stereo not drawn) | inactive: -23.1% and inactive: -5.57% |  |
| CC1(C)CC[C@]2(C(=O)O)CC[C@]3(C)C(=CCC4[C@@]5(C)CC[C@H](O)C(C)(C)[C@@H]5CC[C@]43C)C2C1 (stereo partly drawn) | inactive: 1.41% |  |
| COCCn1c(=O)c(C)nc2cnc(N(C)C)nc21 | inactive: 0.525% |  |
| CO[C@H]1[C@H](NC(=O)c2ccsc2)c2ccccc2C12CCN(Cc1cccn1-c1ccccn1)CC2 | inactive: -11.6% |  |
| CCOC(=O)Nc1ccc(NCc2ccc(F)cc2)nc1N |  | active: 112 µM |
| Cc1cc(=O)[nH]c2ccc(O)cc12 | inactive: -9.77% |  |
| O=c1cnc2cnc(N3CCOCC3)nc2n1C[C@H]1CCCO1 | inactive: -24.5% |  |
| O=C(Nc1nccs1)[C@@H]1CC=C[C@@H]2CCN(Cc3ccccc3)C(=O)[C@@H]21 | inactive: -23.8% |  |
| CCOC(=O)N1CCC(N2CCOc3ccc(CN4CCC(O)(c5cccnc5)CC4)cc3C2)CC1 | inactive: 1.87% |  |

| SMILES | activation | Potency |
| --- | --- | --- |
| NCCC[C@@H](N)C(=O)O | inactive: 8.2% |  |
| COCC(=O)Nc1c(I)c(C(=O)NCC(O)CO)c(I)c(C(=O)N(C)CC(O)CO)c1I (stereo not drawn) | inactive: -21% |  |
| COc1ccc(-n2c(=O)c(-c3ccc(F)cc3)nc3cnc(OC)nc32)cc1 | inactive: -1.69% |  |
| CN1CCN(c2cc3c(cc2F)c(=O)c(C(=O)O)cn3-c2ccc(F)cc2)CC1 | inactive: -1.27% |  |
| O=C(O)CCCC[C@@H]1SC[C@@H]2NC(=O)N[C@@H]21 | inactive: -3.1% |  |
| C[N+]1(C)CCc2cc3c(cc2[C@@H]1[C@@H]1C(=O)Oc2c1ccc1c2OCO1)OCO3 | inactive: 0.251% and inactive: 1.12% |  |
| COc1cc(/C=C/C(=O)c2cccs2)cc(OC)c1OC | inactive: -4.29% |  |
| Cn1cc(-c2nc3cnc(N4CCNCC4)nc3n(C)c2=O)c2ccccc21 | inactive: 4.82% |  |
| C#CCN(Cc1nc(N2CCOCC2)c2ccc(Cl)cc2n1)Cc1ccco1 | inactive: -3.91% |  |
| Cc1cc(C(=O)NCc2nc(-c3cccc(NC(=O)c4cc(C)oc4C)c3)oc2C)nc(C)n1 | inactive: -13.6% |  |
| O=C(N[C@H]1CCC(=O)N(CCSc2ccc(Br)cc2)CC1)OCc1ccccc1 | inactive: -16.1% |  |
| CC(C)=CCC1C(=O)N(c2ccccc2)N(c2ccccc2)C1=O | inactive: -9.15% |  |
| COc1ccc2[nH]cc(CCNc3cc(-c4cccnc4)ncn3)c2c1 | inactive: -0.765% |  |
| Cc1ccc(CN2CCc3nnc(C(NC(=O)c4ccoc4)C(C)C)n3CC2)cc1C (stereo not drawn) | inactive: 5.23% |  |
| CN1CCN(c2ncc3nc(-c4cccc(C#N)c4)c(=O)n(Cc4ccc(F)cc4)c3n2)CC1 | inactive: -15.6% |  |
| N[C@@H](CSSC[C@H](N)C(=O)O)C(=O)O | inactive: -3.29% |  |
| CN(C)c1ccc(C(=O)N2CCCC(Cn3cc(C(=O)N4CCCC4)nn3)C2)cc1 (stereo not drawn) | inactive: -6.08% |  |
| CC1COc2c(N3CCN(C)CC3)c(F)cc3c(=O)c(C(=O)O)cn1c23 (stereo not drawn) | inactive: -2.84% [middle of 4 runs] |  |
| CS(=O)(=O)NC(=O)CCC/C=C\C[C@H]1C(=O)C[C@@H](O)[C@@H]1/C=C/[C@H](O)COc1ccccc1 | inactive: -3.5% |  |
| NC(=O)C[C@H](NC(=O)Cc1ccc(O)cc1O)C(=O)O | inactive: -8.03% and inactive: 11.8% |  |
| O=C(O)COc1ccc(C(=O)c2cccs2)c(Cl)c1Cl | inactive: -6.64% and inactive: -5.98% |  |

| SMILES | activation | Potency |
| --- | --- | --- |
| COc1cccc(O)c1O | inactive: -7.15% |  |
| COc1ccccc1CNc1nc(-c2ccc(N(C)C)cc2)nc2ccccc12 | inactive: 9.82% |  |
| c1cncc(CNc2ccnc(-c3ccc4c(c3)OCO4)n2)c1 | inactive: -5.21% |  |
| COc1ccc(CNC(=O)[C@@H]2CC=C[C@@H]3CCN(Cc4ccc(OC)c(OC)c4)C(=O)[C@@H]32)cc1 | inactive: -14.4% |  |
| COc1ccc(CCn2nnnc2C2(c3ccc(C)cc3)CC2)cc1 | inactive: -53.3% |  |
| O=c1c(-c2ccc(Cl)cc2)nc2cnc(N3CCOCC3)nc2n1-c1ccccc1 | inactive: -1.48% |  |
| O=CCCCC=O | inactive: -5.34% |  |
| O=c1c(-c2cc(F)cc(F)c2)nc2cnc(N3CCOCC3)nc2n1C1CC1 | inactive: -11.7% |  |
| CC1(C)S[C@@H]2[C@H](NC(=O)COc3ccccc3)C(=O)N2C1C(=O)OCc1ccccc1 (stereo partly drawn) | inactive: -26.5% |  |
| Nc1ccccc1C(=O)C[C@H](N)C(=O)O | inactive: 8% |  |
| CCCCOc1ccc(C(=O)CCN2CCCCC2)cc1 | inactive: -10.2% and inactive: -15.5% |  |
| CC(C)(C)CC(C)(C)c1ccc(OCCOCC[N+](C)(C)Cc2ccccc2)cc1 | inactive: -42% and inactive: -10.4% |  |
| O=P(O)(O)C(O)c1ccc2ccccc2c1 (stereo not drawn) | inactive: -2.68% |  |
| CC(C)C[C@@H](CSc1ccccc1)N1CCN(C)CCC1=O | inactive: -9.44% |  |
| Cn1c(SCc2ccccc2)nnc1C1CCCN(Cc2cccc3ncccc23)C1 (stereo not drawn) | inactive: -8.36% |  |
| CC(C)CCCCCCc1ccc(O)cc1 | inactive: -21.8% |  |
| CC[C@@H](C(=O)[C@@H](C)[C@@H](O)[C@H](C)[C@@H]1O[C@@H]([C@@H](CC)C(=O)O)CC[C@@H]1C)[C@H]1O[C@]2(C=C[C@@H](O)[C@]3(CC[C@@](C)([C@H]4CC[C@](O)(CC)[C@H](C)O4)O3)O2)[C@H](C)C[C@@H]1C | inactive: -3.39% |  |
| CCOC(=O)C(C)Oc1cccc2c(=O)n(CC(=O)Nc3ccc4c(c3)OCCO4)ccc12 (stereo not drawn) | inactive: -16.4% |  |
| Cc1cccc(CN2C[C@H](Sc3ccccn3)C[C@H]2C(=O)Nc2ccc3sc(C)nc3c2)c1 | inactive: 0.845% |  |
| Cn1nnc2c(C(N)=O)ncn2c1=O | inactive: -10.5% |  |
